{"source": "paper PMC4336329", "about": "(PLoS ONE, 2015)", "note": "In all, about 310,000 compounds went through this assay and about 2,200 (0.71%) showed an effect of 50% or more. Effects have a minus sign here. The list shows a part of the results."}
{"target": "human ether-à-go-go-related gene (hERG) potassium channel (human, UniProt Q12809)", "sequence (Q12809 whole entry, looked up)": "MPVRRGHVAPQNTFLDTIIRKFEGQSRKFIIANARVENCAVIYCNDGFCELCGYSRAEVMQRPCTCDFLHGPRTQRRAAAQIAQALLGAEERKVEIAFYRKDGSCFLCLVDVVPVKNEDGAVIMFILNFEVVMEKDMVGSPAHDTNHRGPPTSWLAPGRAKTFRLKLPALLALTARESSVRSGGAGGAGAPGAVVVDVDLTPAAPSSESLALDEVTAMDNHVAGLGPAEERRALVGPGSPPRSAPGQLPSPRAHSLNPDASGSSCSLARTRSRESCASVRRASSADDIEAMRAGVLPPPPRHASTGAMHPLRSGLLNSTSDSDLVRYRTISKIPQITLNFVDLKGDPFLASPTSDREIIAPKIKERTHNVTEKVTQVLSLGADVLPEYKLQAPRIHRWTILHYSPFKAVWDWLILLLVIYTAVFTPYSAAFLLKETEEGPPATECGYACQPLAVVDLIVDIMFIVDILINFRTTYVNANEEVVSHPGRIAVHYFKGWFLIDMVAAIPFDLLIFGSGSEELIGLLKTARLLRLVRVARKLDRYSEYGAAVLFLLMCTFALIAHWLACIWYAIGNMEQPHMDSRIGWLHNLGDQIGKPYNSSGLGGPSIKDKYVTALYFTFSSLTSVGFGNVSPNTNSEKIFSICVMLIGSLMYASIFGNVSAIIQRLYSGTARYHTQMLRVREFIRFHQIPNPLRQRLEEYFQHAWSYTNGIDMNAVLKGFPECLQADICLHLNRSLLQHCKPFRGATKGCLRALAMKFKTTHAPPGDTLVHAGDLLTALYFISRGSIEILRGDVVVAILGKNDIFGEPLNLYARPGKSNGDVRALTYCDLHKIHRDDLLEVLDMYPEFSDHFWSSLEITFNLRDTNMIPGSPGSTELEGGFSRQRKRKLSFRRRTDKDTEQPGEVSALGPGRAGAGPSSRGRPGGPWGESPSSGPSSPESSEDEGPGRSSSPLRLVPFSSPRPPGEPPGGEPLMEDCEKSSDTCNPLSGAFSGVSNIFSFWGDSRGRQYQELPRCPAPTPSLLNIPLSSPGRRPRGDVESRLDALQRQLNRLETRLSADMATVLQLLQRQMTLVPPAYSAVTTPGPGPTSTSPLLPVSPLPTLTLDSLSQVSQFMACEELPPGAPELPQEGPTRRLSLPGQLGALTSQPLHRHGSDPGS", "assay": "primary screen, population patch clamp on CHO cells stably expressing hERG", "units": {"hERG current change (%, negative = inhibition) at 1uM": "%"}}
{"smiles": "Cc1cc(=O)[nH]c2nnc(-c3ccc(Cl)cc3)n12", "hERG current change (%, negative = inhibition) at 1uM": 11.3}
{"smiles": "COc1ccc(N=C2S/C(=C\\c3ccco3)C(=O)N2CC(C)C)cc1", "hERG current change (%, negative = inhibition) at 1uM": 11.3}
{"smiles": "COc1ccc(OCC(=O)NCc2ccc(Cl)cc2)cc1", "hERG current change (%, negative = inhibition) at 1uM": 8.82}
{"smiles": "C=CCOC(=O)C1=C[C@H](C2CC2)[C@@H](CCCO)[C@H](OCC)O1", "hERG current change (%, negative = inhibition) at 1uM": 19.2}
{"smiles": "CCC(CC)C(=O)Nc1cc(=O)n(C)c(=O)n1C", "hERG current change (%, negative = inhibition) at 1uM": 7.2}
{"smiles": "CN(C)Cc1c(C(=O)N/N=C/c2cccc(OCc3ccccc3)c2)nnn1-c1nonc1N", "hERG current change (%, negative = inhibition) at 1uM": 12.3}
{"smiles": "CN=c1c([N+](=O)[O-])nn(-c2ccc3c(c2)OCCO3)n1O", "hERG current change (%, negative = inhibition) at 1uM": 11.9}
{"smiles": "Cc1oc2c(c(C)cc3oc(=O)c(CC(=O)N[C@@H](CC(C)C)C(=O)O)c(C)c32)c1C", "hERG current change (%, negative = inhibition) at 1uM": 11.7}
{"smiles": "CC(C)CC(COCc1cccc(Cl)c1)N1CCN(C(=O)c2cccc(C(F)(F)F)c2)CCC1=O", "note": "(stereo not drawn)", "hERG current change (%, negative = inhibition) at 1uM": -7.64}
{"smiles": "CCOC(=O)N1CCN(C(=O)Cn2nc(-c3ccc(Cl)cc3)ccc2=O)CC1", "hERG current change (%, negative = inhibition) at 1uM": -5.5}
{"smiles": "O=C(O)CCSc1nnc(-c2ccccc2)n1-c1ccccc1", "hERG current change (%, negative = inhibition) at 1uM": 6.47}
{"smiles": "Cc1ccc(NC(=O)Nc2ccccc2)c(Br)c1", "hERG current change (%, negative = inhibition) at 1uM": 13.7}
{"smiles": "COc1ccccc1C(=O)NC1CC2CCC(C1)N2Cc1ccccc1", "note": "(stereo not drawn)", "hERG current change (%, negative = inhibition) at 1uM": -2.2}
{"smiles": "NC(=O)CC[C@H](NC(=O)[C@H](Cc1ccccc1)n1c(=O)[nH]c2ccccc2c1=O)C(=O)N1CCC[C@H]1C(=O)O", "hERG current change (%, negative = inhibition) at 1uM": -4.77}
{"smiles": "CN(Cc1ccccc1)C(=O)COC(=O)COc1ccc(C#N)cc1", "hERG current change (%, negative = inhibition) at 1uM": 0.86}
{"smiles": "CCCOC(=O)c1ccc(NC(=O)C(=O)NCCN(CC)CC)cc1", "hERG current change (%, negative = inhibition) at 1uM": -13.3}
{"smiles": "CCCCN1C(=O)N(C)C2C1N(C)C(=O)N2CCCC", "note": "(stereo not drawn)", "hERG current change (%, negative = inhibition) at 1uM": 4.27}
{"smiles": "CCS(=O)(=O)N1CCC(C(=O)NC2CCCCCCC2)CC1", "hERG current change (%, negative = inhibition) at 1uM": 2.8}
{"smiles": "Cc1ccc(N/C=C/C(=O)c2cccs2)cc1C", "hERG current change (%, negative = inhibition) at 1uM": 11.5}
{"smiles": "Cc1[nH]c2ccccc2c1C1=CN2CCS(=O)(=O)N=C2S1", "hERG current change (%, negative = inhibition) at 1uM": 10.1}
{"smiles": "Cc1cc(C)c2nc(N(CCCN(C)C)C(=O)c3ccc4c(c3)OCCO4)sc2c1.Cl", "hERG current change (%, negative = inhibition) at 1uM": 1.3}
{"smiles": "Cc1ccc(C2(C(F)(F)F)NC(=O)N3C(=C2C#N)Nc2ccccc23)cc1", "note": "(stereo not drawn)", "hERG current change (%, negative = inhibition) at 1uM": 11.5}
{"smiles": "COC(=O)CN1C(=O)C(O)(CC(=O)c2ccc(C)cc2)c2ccccc21", "note": "(stereo not drawn)", "hERG current change (%, negative = inhibition) at 1uM": 13.1}
{"smiles": "Cc1ccc(Cn2c(SCC(C)C)nc3c2c(=O)n(C)c(=O)n3C)cc1", "hERG current change (%, negative = inhibition) at 1uM": 6.92}
{"smiles": "O=C(O)c1c(NC(=O)N2CCCC2)sc2c1CCCC2", "hERG current change (%, negative = inhibition) at 1uM": 19.2}
{"smiles": "O=C(Cn1ccccc1=O)NCc1ccc(F)cc1", "hERG current change (%, negative = inhibition) at 1uM": 11.3}
{"smiles": "CC(=O)c1sc(NC(=O)c2ccc(F)c(S(=O)(=O)N3CCOCC3)c2)nc1C", "hERG current change (%, negative = inhibition) at 1uM": 14.1}
{"smiles": "CCC(C)c1ccc(O)c(NC(=O)c2ncn[nH]2)c1", "note": "(stereo not drawn)", "hERG current change (%, negative = inhibition) at 1uM": 17.9}
{"smiles": "CC(=O)c1ccc(S(=O)(=O)NCCC(=O)OCC(=O)N(Cc2ccccc2)C(C)(C)C)cc1", "hERG current change (%, negative = inhibition) at 1uM": 4.73}
{"smiles": "CCNc1ccc(N=Nc2c(C)n(C)n(-c3ccccc3)c2=O)cc1", "hERG current change (%, negative = inhibition) at 1uM": 7.24}
{"smiles": "COc1ccc(CCNc2cc(C)nc3c(-c4ccccc4OC)cnn23)cc1OC", "hERG current change (%, negative = inhibition) at 1uM": 13.1}
{"smiles": "Cc1ccc(NC(=O)CSc2nnc(CNC(=O)c3ccco3)n2C)c(C)c1", "hERG current change (%, negative = inhibition) at 1uM": -2.53}
{"smiles": "CCCCn1c(=O)c2ccccc2c2ccccc2c1=O", "hERG current change (%, negative = inhibition) at 1uM": 8.74}
{"smiles": "O=c1[nH]c(Cc2ccccc2)nc2c1oc1ccccc12", "hERG current change (%, negative = inhibition) at 1uM": 8.74}
{"smiles": "COCCNC(=O)c1ccc2c(=O)n(Cc3ccco3)c(SCC(=O)Nc3ccc(OC)cc3OC)nc2c1", "hERG current change (%, negative = inhibition) at 1uM": 10.8}
{"smiles": "O=C(O)C1CCN(S(=O)(=O)c2ccc(N3CCC(O)CC3)c([N+](=O)[O-])c2)CC1", "hERG current change (%, negative = inhibition) at 1uM": 16.8}
{"smiles": "O=C(NCCN1CCOCC1)c1cc(-c2ccccc2)on1", "hERG current change (%, negative = inhibition) at 1uM": 11}
{"smiles": "N#CC1=C(N)Oc2c(c(=O)oc3ccccc23)C1c1cccnc1", "note": "(stereo not drawn)", "hERG current change (%, negative = inhibition) at 1uM": 8.95}
{"smiles": "O=c1c2ccc(Cl)cc2[nH]c(=S)n1CCCN1CCOCC1", "hERG current change (%, negative = inhibition) at 1uM": 4.95}
{"smiles": "CCN(CC)c1ccc(/C=N/N=C(N)N)c(O)c1", "hERG current change (%, negative = inhibition) at 1uM": -1.15}
{"smiles": "CCCCN(CCCC)CCNC(=O)c1ccc2nc(-c3ccccc3NC(C)=O)c(=O)[nH]c2c1", "hERG current change (%, negative = inhibition) at 1uM": 13.6}
{"smiles": "O=C(NCc1ccco1)C1CCCN(S(=O)(=O)c2ccc(-n3cnnn3)cc2)C1", "note": "(stereo not drawn)", "hERG current change (%, negative = inhibition) at 1uM": -26.8}
{"smiles": "CC1=NN(c2ccccc2)C(=O)/C1=C\\c1ccc(Br)s1", "hERG current change (%, negative = inhibition) at 1uM": 4.5}
{"smiles": "O=C(c1nc2nc(-c3ccccc3)cc(C(F)(F)F)n2n1)N1CCOCC1", "hERG current change (%, negative = inhibition) at 1uM": 27.2}
{"smiles": "Cc1ccc(C23CC4CC(CC(C(=O)N5CCOCC5)(C4)C2)C3)cc1", "hERG current change (%, negative = inhibition) at 1uM": 7.59}
{"smiles": "Cc1ccc(C2C3CSCC=C3C(C#N)=C(N)C2(C#N)C#N)cc1", "note": "(stereo not drawn)", "hERG current change (%, negative = inhibition) at 1uM": -14}
{"smiles": "COc1cc2c(c(OC)c1OC)C(=O)CC2", "hERG current change (%, negative = inhibition) at 1uM": 8.41}
{"smiles": "O=C(c1ccccc1)c1nc2c(n1O)CCCCC2", "hERG current change (%, negative = inhibition) at 1uM": 7.96}
{"smiles": "COc1ccccc1NC(=O)CSCc1cc(=O)n2c(C)csc2n1", "hERG current change (%, negative = inhibition) at 1uM": 15.6}
{"smiles": "CCCN1C(=O)c2ccc(C(=O)Nc3cc(C)on3)cc2C1=O", "hERG current change (%, negative = inhibition) at 1uM": 8.19}
{"smiles": "CCCCCOc1ccc(/C(C)=N/NC2=NCCN2)cc1", "hERG current change (%, negative = inhibition) at 1uM": 8.51}
{"smiles": "O=c1oc2cc(O)ccc2c2c1CCCC2", "hERG current change (%, negative = inhibition) at 1uM": 10.7}
{"smiles": "Cc1cccc(C)c1NC(=O)CSc1nnc(NC(=O)CN2CCOCC2)s1", "hERG current change (%, negative = inhibition) at 1uM": 11.1}
{"smiles": "Oc1cccc(C2c3[nH]c4ccccc4c3CCN2Cc2ccoc2)c1", "note": "(stereo not drawn)", "hERG current change (%, negative = inhibition) at 1uM": 5.62}
{"smiles": "O=C(NCc1cccnc1)c1ccc(COc2ccc3c(c2)CCC3)o1", "hERG current change (%, negative = inhibition) at 1uM": 7.24}
{"smiles": "Cc1cccc(NC(=O)c2cc(-c3cc(C)ccc3O)n[nH]2)c1", "hERG current change (%, negative = inhibition) at 1uM": 5.2}
{"smiles": "CCc1ccc(N2CCN(CCNC(=O)Nc3ccc(OC)cc3)CC2)cc1", "hERG current change (%, negative = inhibition) at 1uM": 15.5}
